Sequences with one replicate were seen in a single cluster, so their values are uncertain.
Test system: ATP
Assay: switch fluorescence ratio, 500 uM ATP over buffer (Cy3 cluster intensity, sum of 5 cycles each) (fold (ratio)); higher = stronger signal-on switching upon ATP binding; sequences stand for … in TCGTCGGCAGCGTCAGATGTGTATAAGAGACAGTTTTTTTTTTTTTTTTTTTTTTTTT…TC
Settings: aptamer strand: ATP DNA aptamer (quencher-CACCTGGGGGAGTATTGCGGAGGAAGG + anchor), 100 nM annealed; ATP concentration: 500 uM; one replicate
Outline: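 After annealing to 100 nM quencher-labelled ATP aptamer, Cy3-labelled switching-strand clusters on a modified Illumina MiSeq flow-cell were imaged in selection buffer. A second image followed after 15 min with 500 uM ATP at 22 °C, and five such buffer/ATP cycles were done, each separated by NaOH stripping and re-annealing. The fluorescence ratio, averaged per switch-domain sequence, is summed target-cycle over summed buffer-cycle Cy3 intensity per cluster, with clusters outside 100-1000 RFU excluded.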
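Further: ATP exposure 15 min at 22 °C before imaging.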

Sequence	switch fluorescence ratio
GCGCCCTCTT	0.967
AGTATGTCAC	0.984
ATTGTAGTTA	1.02
ACTCGGAGA	1.01
TCGGAGCGGT	3.21
CCAACAGCTC	1.44
TTCACCGGC	1.05
TCAAAGACTC	1.03
GCTTTATAAA	1.09
GCCTTTAAGC	1.07
CAAGAATCGT	1.05
AATCGGCTTA	1.06
TACGTGTTGT	0.978
CAGTTGTTCT	1.05
GTCAGTTCTT	0.968
CTTATGCATA	1.1
GCCCCCGTCG	1.03
CGTCCTGCTG	0.906
AATCCAGTT	0.972
GATCGACAGC	1.04
TAACTGGTTT	0.992
AATACACTCT	1.05
AAGTATACCT	1.1

Sequence	switch fluorescence ratio
CGTATTAAG	0.962
GCGGCGCCGC	1.08
GGTGGACCGG	1.04
GAGACGTCAG	1.19
TATCGCTGGG	1.02
ATGTTAATGT	1.01
TTCTTACATT	1
TGTTGCACGT	0.962
CTGTACATGC	1.54
TTTTAACGCG	1.03
GAGGTGCGCG	0.971
ATTTTTTAT	1.01
GGGCCTTCTT	1.04
AACCTCGC	1.17
AAAAATGCCT	1.13
TCTTGTTAGT	0.991
AAGGGATGAA	1.03
TGTGATGATC	1
GTCGGAGTTC	0.982
CCGACACTGG	1.27
GCGGTTAAAA	0.995
AAACCCTCAT	1.03
GCCATAAACT	0.983

Sequence	switch fluorescence ratio
AAGATGGTTT	0.978
TTCAGGATAT	1.04
CAAATTGTTC	1.03
ATTGGTAAAG	1
GGTCTAATAT	1.03
GGCAACGAGC	1.01
GTGCTTGACG	0.956
GTATACGTGT	1
AGTTGGGAGT	0.988
TGTATTAGGT	1
GGCAGCGGTG	0.904
TGCATCTAGG	0.994
ATCGACTCTT	1.01
GATAAGTTGC	1.11
GAGGACGGGT	1.07
CTCGGCTATG	1.2
TGAGTCGTGC	1
GTGGAGATTT	0.99
AGCATATGAG	1.06
GCATTATGCG	0.992
TTATGTTGC	1
AAGTAATCCC	0.995
TTTCAACAG	1

Sequence	switch fluorescence ratio
ACTAGTTTGA	1
AACCTGTACG	1.16
CTCCCATATT	1.38
GATACTGCAC	1.65
CAATCTTGTA	0.99
TTACCAAACA	1.06
CGAAAGGAGT	1.03
AACCTACCTT	1.46
TAATTAGAAA	1.04
GCTGCTTGTG	1.05
ATCCTACTGG	1
CTATTGGAAG	0.946
CTAAAGATAG	0.988
GGCAGCATGA	0.987
TGTCGTATGC	1.06
CCCGTTTGCC	0.888
TGGAATGTGG	1
TGGAGATGGT	0.987
AGCAACACTT	1.64
TTGGAACGG	0.958
TATTAGCTGT	0.987
CTCTATTTG	1.01
CCACAAGGCT	1.65

Sequence	switch fluorescence ratio
ATATGCAAGT	1.02
GATGCACCTA	1.01
AGATTTAGAA	0.979
GGGCGTGTAA	1.04
ATTTCTATTA	1.02
CCATTTATCG	0.985
ACCGTAGGTC	0.987
CTCACAGGAA	1.06
GGAGTCATT	0.982
GTAAGGGGTA	0.976
GGGCGACATG	0.981
TGGGAACATC	1.01
CAGTGTGTAA	1.08
TTGACATAAA	0.952
CAAGTCTACA	1.05
GGATTCTGAG	0.996
TGGGCCCCCT	1.01
CTCTCCTTGC	1.41
GAAAAAGAGC	1.1
GCAGACTTGT	0.958
ACCTGACCTA	1.21
CCGTCTGCTA	1.67
TGATGCAGTG	1.05

Sequence	switch fluorescence ratio
TCGTTTCGAG	0.968
GCGTAGACGT	0.986
AGGAGTCACT	0.96
GGCGTACAGA	1.02
GATTCATT	0.981
GAGGGAACTC	0.97
CGACGTTTCA	1.01
GTCCCAGGG	1.31
CCAGCTACAT	1.07
GGACTGCGGC	1.01
TTTTTCGATG	1.01
GGGGACCCCA	1.07
ATAATGATAC	1.06
TCGAGCGAGC	1.03
CGACTTGTCG	0.967
ACTTGCCCAA	1.04
TTTGCTCGTC	1.09
CGAATCCGGT	1.01
TCACAGAATT	0.985
CCGCCTGATG	1.13
ATTTGCCCAG	1.04
GGGGCATACA	1.05
CTTTCCACAT	1.03

Sequence	switch fluorescence ratio
GGTCACGGTA	0.854
GTGTGGCGCC	0.98
GCCAACAAGA	1.03
CGGTTCTGAG	1.04
CAGTTGGCCT	1.01
AATATAAAAC	1.02
GCATGTATTA	1.02
CCCGTTGTGG	1.04
GCTTTGTCAA	0.983
CCGATAAGAT	1.61
TTTTGGTATC	0.991
CGGATGACCT	1.04
GGATCCGCTG	1.89
TGCCGAAGGG	0.974
TTCGTACAGG	1.05
TGGCCTATGA	0.939
TTTCACTATA	1.09
TTTTTTGCAC	0.998
GCCGCGGCA	1.02

— the supplement of paper PMC10126150
